Some of the results follow.
test system: S. aureus RN4220; test: growth inhibition call (relative growth <= 0.2); details: 50 µM

Growth inhibition call, inactive:
COc1cc2c(cc1OC)C(=O)NCC2
Cc1ccc(C(=O)Nc2ccc(S(=O)(=O)O)c3cc(S(=O)(=O)O)cc(S(=O)(=O)O)c23)cc1NC(=O)c1cccc(NC(=O)Nc2cccc(C(=O)Nc3cc(C(=O)Nc4ccc(S(=O)(=O)O)c5cc(S(=O)(=O)O)cc(S(=O)(=O)O)c45)ccc3C)c2)c1
CN1CCN(C(=O)[C@@H]2[C@@H](CO)[C@@H]3Cn4c(ccc(-c5cncnc5)c4=O)[C@@H]3N2CC2CC2)CC1
C[C@@H]1CN([C@@H](C)CO)C(=O)c2cc(NC(=O)Nc3ccccc3)ccc2O[C@@H]1CN(C)C(=O)Nc1ccc(C(F)(F)F)cc1
C[C@@H]1CN([C@H](C)CO)C(=O)c2cccc(NC(=O)c3nc4ccccc4s3)c2O[C@H]1CN(C)Cc1ccc(Cl)c(Cl)c1
C[C@@H]1CN([C@@H](C)CO)C(=O)Cc2cc(NC(=O)Cc3ccccc3)ccc2O[C@@H]1CN(C)S(=O)(=O)c1ccccc1
COc1ccc(NC(=O)N(C)C[C@H]2Oc3ccc(NC(=O)CCCN(C)C)cc3C(=O)N([C@H](C)CO)C[C@H]2C)cc1
CCS(=O)(=O)N1C[C@]2(C1)CN([C@H](CO)c1[nH]c3cc(ccc3c12)OC)C(=O)Nc1c(noc1C)C
COc1ccc(S(=O)(=O)Nc2ccc3c(c2)C(=O)N([C@H](C)CO)C[C@H](C)[C@H](CN(C)Cc2ccc(C(F)(F)F)cc2)OCCCC[C@@H](C)O3)cc1
CON=C(C(=O)NC1C(=O)N2C(C(=O)OC(C)OC(C)=O)=C(COC(N)=O)CSC12)c1ccco1 (configuration not stated)
Cc1noc(C)c1NC(=O)N(C)C[C@H]1OCCCC[C@@H](C)Oc2ccc(NC(=O)Nc3ccc4c(c3)OCO4)cc2C(=O)N([C@H](C)CO)C[C@@H]1C
C[C@H]1CCCCO[C@H](CN(C)Cc2ccc(Cl)c(Cl)c2)[C@@H](C)CN([C@@H](C)CO)C(=O)c2cc(NC(=O)Nc3ccc(F)cc3)ccc2O1
Cc1ccc(S(=O)(=O)Nc2ccc3c(c2)C(=O)N([C@@H](C)CO)C[C@H](C)[C@H](CN(C)Cc2ccccc2)OCCCC[C@@H](C)O3)cc1
C[C@@H]1CN([C@@H](C)CO)C(=O)c2cc(NC(=O)Nc3cccc4ccccc34)ccc2O[C@@H](C)CCCCO[C@H]1CN(C)C(=O)NC1CCCCC1
C[C@@H]1CCCCO[C@H](CN(C)Cc2ccc(Cl)c(Cl)c2)[C@@H](C)CN([C@@H](C)CO)C(=O)c2cc(NS(=O)(=O)c3cn(C)cn3)ccc2O1
Clc1ccc(/C=N/Cc2ccc(-c3cccs3)s2)cc1
C[C@@H]1CCCCO[C@H](CN(C)C(=O)Nc2ccc3c(c2)OCO3)[C@@H](C)CN([C@@H](C)CO)C(=O)c2cc(NC(=O)Cc3ccccc3)ccc2O1
C=CCOC(=O)[C@@H]1[C@H]2C(=O)O[C@H](c3ccccc3)[C@H](c3ccccc3)N2[C@H](c2ccc(OCCOC(=O)[C@H]3C[C@H]4C(=O)N5CCC[C@H]5C(=O)N4[C@H]3c3ccc(O)cc3)cc2)[C@@]12C(=O)Nc1ccc(I)cc12
O=c1cc(-c2ccccc2)oc2ccccc12
C[C@@H]1CN([C@@H](C)CO)C(=O)c2cc(NC(=O)Nc3ccccc3)ccc2O[C@@H](C)CCCCO[C@@H]1CN(C)S(=O)(=O)c1ccccc1
COc1cccc(S(=O)(=O)Nc2ccc3c(c2)OC[C@H](C)N(C(=O)Cc2cccnc2)C[C@H](C)[C@@H](OC)CN(C)C3=O)c1
CN1CC(=O)N=C1NC(=O)[C@H]1CCCN(S(=O)(=O)c2ccc3c(c2)oc(=O)n3C)C1
COCC#Cc1cnc2c(c1)C(=O)N([C@H](C)CO)C[C@@H](C)[C@H](CN(C)S(=O)(=O)c1cccc(OC)c1)O2
COc1ccc(S(=O)(=O)N(C)C[C@@H]2Oc3ccc(NC(=O)Nc4cc(Cl)cc(Cl)c4)cc3CC(=O)N([C@@H](C)CO)C[C@@H]2C)cc1Cl
C[C@@H]1CN([C@H](C)CO)S(=O)(=O)c2ccc(-c3cncnc3)cc2O[C@H]1CN(C)C(=O)Cc1ccccc1
C[C@H]1CN([C@@H](C)CO)C(=O)c2cc(NS(C)(=O)=O)ccc2O[C@@H]1CN(C)Cc1ccc2c(c1)OCO2
Cc1ccc(S(=O)(=O)N(C)C[C@@H]2OCCCC[C@H](C)Oc3ccc(NC(=O)CCCCCC(=O)Nc4ccccc4N)cc3C(=O)N([C@H](C)CO)C[C@@H]2C)cc1
